Some of the results follow. Sequences were assembled here from the parent chain. Inactive controls read about 0.05.
B1: TEV protease; numbered along this chain (parent)
chain: MGESLFKGPRDYNPISSSICHLTNESDGHTTSLYGIGFGPFIITNKHLFRRNNGTLVVQSLHGVFKVKDTTTLQQHLVDGRDMIIIRMPKDFPPFPQKLKFREPQREERICLVTTNFQTKSMSSMVSDTSCTFPSGDGIFWKHWIQTKDGQCGSPLVSTRDGFIVGIHSASNFTNTNNYFTSVPKNFMELLTNQEAQQWVSGWRLNADSVLWGGHKVFMVKPEEPFQPVKEATQL

Variants of: B1
Assay: raw area under fraction-flipped curve 0-4 h after induction (AUC4h, not background-subtracted), DNA-recorder readout of cleavage of the substrate (dimensionless); higher = more cleavage of the substrate by the protease variant
Conditions: temperature: 34 °C; time window: 0-4 h after rhamnose induction
Protocol: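 In vivo DNA recorder in E. coli TOP10(DE3) ΔrhaA at 34 °C. Each TEVp single-site mutant (parent TEVp 0) is paired with a single-site variant of the 7-mer TEVs (canonical ENLYFQ|S). The substrate sits between flexible linkers in a Bxb1-sfGFP-TEVs-SsrA fusion, so cleavage stabilises Bxb1 and speeds flipping of a recombination array, read by NGS. The value is the raw area under the fraction-flipped curve over 0-4 h after rhamnose induction (AUC4h), with ≥20 reads per time point. It is not background-subtracted; inactive controls average about 0.047.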
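Further: Bxb1 expression induced with 0.2% (w/v) L-rhamnose at OD600 near 0.5, cultures sampled hourly, flipped fraction per protease–substrate barcode pair counted by paired-end Illumina sequencing.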

Row | Variant | area with substrate CNLYFQS | area with substrate DNLYFQS | area with substrate FNLYFQS | area with substrate INLYFQS | area with substrate KNLYFQS | area with substrate LNLYFQS | area with substrate MNLYFQS | area with substrate NNLYFQS | area with substrate PNLYFQS | area with substrate SNLYFQS | area with substrate TNLYFQS | area with substrate WNLYFQS | area with substrate GNLYFQS | area with substrate HNLYFQS | area with substrate QNLYFQS | area with substrate RNLYFQS | area with substrate VNLYFQS | area with substrate YNLYFQS
1 | D161A | 0.0591 | 0.0598 | 0.049 | 0.0505 | 0.0492 | 0.051 | 0.0573 | 0.061 | 0.0384 | 0.0626 | 0.0436 | 0.0533 |  |  |  |  |  | 
2 | D161W | 0.0538 | 0.0471 | 0.039 | 0.0551 | 0.0434 | 0.0737 | 0.0483 | 0.0473 | 0.0514 | 0.05 | 0.0479 | 0.0573 | 0.0596 | 0.0508 | 0.0466 | 0.0569 | 0.0374 | 0.0487
3 | I167A | 0.0544 | 0.079 |  | 0.0487 |  |  | 0.0479 |  | 0.0481 |  | 0.0448 | 0.0511 |  | 0.0485 |  |  |  | 
4 | V165T | 0.07 | 0.0698 | 0.0653 | 0.0685 | 0.0742 | 0.0589 | 0.0436 | 0.0469 | 0.0604 | 0.061 | 0.0572 | 0.0525 |  | 0.0622 |  | 0.0652 | 0.0325 | 
5 | V165R | 0.0527 | 0.0424 |  |  | 0.082 | 0.0519 |  | 0.0407 | 0.0545 | 0.0593 | 0.0565 | 0.0559 | 0.0494 | 0.0517 |  |  |  | 0.0691
6 | S171F | 0.0587 | 0.0631 |  | 0.061 | 0.0499 |  | 0.0691 |  | 0.0754 | 0.0664 | 0.0504 |  | 0.0563 | 0.0583 |  |  | 0.0493 | 0.0601
7 | S171M | 0.0675 | 0.058 |  |  | 0.0596 | 0.0628 | 0.0664 |  | 0.0662 | 0.0638 | 0.0622 | 0.0326 |  | 0.042 |  | 0.0528 | 0.0344 | 
8 | S171L | 0.0502 | 0.0647 |  | 0.0521 | 0.0906 | 0.0553 | 0.0593 |  |  | 0.0671 | 0.0595 | 0.0554 | 0.0474 | 0.0549 |  |  |  | 0.0655
9 | W141P | 0.0455 | 0.0448 | 0.0479 |  | 0.0736 | 0.072 |  |  | 0.0506 |  | 0.059 | 0.0531 |  | 0.0491 |  | 0.0448 | 0.0359 | 0.0525
10 | W141A | 0.0523 | 0.0615 | 0.0521 |  |  |  | 0.0723 |  | 0.0482 | 0.0363 | 0.0562 | 0.0584 | 0.0552 | 0.0517 | 0.0518 |  | 0.0573 | 0.0499
11 | W141I | 0.0748 | 0.0621 |  |  | 0.0471 | 0.0578 | 0.0483 |  | 0.0523 | 0.0717 | 0.0574 | 0.0466 |  | 0.0729 |  |  | 0.0615 | 
12 | V157D | 0.0583 | 0.0451 |  |  |  | 0.0464 | 0.043 |  | 0.0506 | 0.048 | 0.0505 | 0.0483 | 0.0486 | 0.043 | 0.05 | 0.0387 | 0.0527 | 0.0465
13 | V157L | 0.0737 | 0.0653 | 0.0611 | 0.0534 | 0.0625 | 0.0578 | 0.0685 | 0.0103 |  | 0.0704 | 0.0557 | 0.0574 | 0.0815 | 0.0617 |  |  |  | 0.062
14 | V157S | 0.0813 | 0.0631 |  | 0.0487 |  | 0.0586 |  | 0.0552 | 0.0695 | 0.0507 |  | 0.0466 | 0.0553 | 0.0402 |  | 0.0563 |  | 0.065
15 | S158G | 0.0646 | 0.0747 | 0.069 | 0.0718 | 0.0714 | 0.0559 | 0.0709 |  |  | 0.0644 | 0.0673 | 0.0478 |  | 0.0743 |  |  |  | 0.0643
16 | Q146K | 0.0677 | 0.069 | 0.0688 | 0.0686 | 0.0694 | 0.0518 | 0.0606 |  | 0.0688 | 0.0614 | 0.0819 | 0.0534 | 0.0719 | 0.0694 | 0.0671 | 0.0658 | 0.0646 | 0.0624
17 | Q146M | 0.0786 | 0.107 | 0.0471 | 0.0906 | 0.0775 | 0.0755 |  |  | 0.0801 | 0.0683 | 0.0565 | 0.0628 | 0.106 | 0.0931 |  |  | 0.121 | 
18 | Q146T | 0.117 | 0.0793 | 0.0496 | 0.0736 |  |  | 0.038 |  | 0.0632 | 0.067 | 0.0653 | 0.0536 | 0.0704 | 0.0567 |  |  | 0.0474 | 0.0667
19 | Q146C | 0.106 | 0.0832 |  |  |  | 0.0194 | 0.0771 |  | 0.0774 | 0.0664 | 0.0679 | 0.0646 | 0.09 | 0.0577 |  | 0.105 |  | 0.0654
20 | T147Q | 0.0618 | 0.0563 | 0.0648 |  | 0.0685 | 0.059 | 0.0605 |  | 0.0572 |  | 0.07 | 0.076 |  | 0.0648 |  |  |  | 
21 | P134D | 0.0585 | 0.073 | 0.0642 | 0.0606 | 0.0655 | 0.0647 | 0.0572 | 0.0605 | 0.052 | 0.0625 | 0.0611 | 0.0628 | 0.0631 | 0.0477 |  |  | 0.0641 | 0.0611
22 | P134G | 0.0555 | 0.0656 |  |  | 0.06 | 0.0611 | 0.0445 | 0.075 | 0.0638 | 0.0472 | 0.055 | 0.0569 | 0.052 | 0.0521 |  |  | 0.0512 | 0.0565
23 | P155D | 0.0528 | 0.0523 |  | 0.0514 | 0.0604 | 0.0456 | 0.0609 | 0.0536 | 0.05 | 0.038 | 0.0485 | 0.0513 | 0.0472 | 0.0491 |  |  | 0.0624 | 0.0529
24 | P155K | 0.0571 | 0.0434 | 0.0343 | 0.042 | 0.054 | 0.0676 | 0.0676 |  | 0.0583 |  | 0.0533 | 0.0518 | 0.0691 | 0.0463 |  |  | 0.0475 | 0.0411
25 | T176K | 0.0831 | 0.068 |  | 0.0612 | 0.0694 | 0.0653 | 0.0487 |  | 0.0391 | 0.0734 |  |  |  | 0.0603 | 0.0486 |  | 0.0598 | 
26 | N177L | 0.124 | 0.137 |  |  |  | 0.0839 | 0.0779 |  |  | 0.0896 | 0.0928 | 0.0702 | 0.0815 | 0.0784 |  |  | 0.0889 | 
27 | I164D | 0.057 | 0.0567 |  | 0.0567 | 0.0638 | 0.0562 |  | 0.0526 | 0.058 | 0.0694 | 0.0616 | 0.0544 | 0.0607 | 0.0593 |  |  | 0.0604 | 0.0539
